Reference: PubChem BioAssay AID485281 (National Center for Advancing Translational Sciences (NCATS), 2010)
The campaign covered roughly 350,000 compounds. About 260 (0.074%) were called active. This list was built around the results that the source calls inconclusive (neither active nor inactive); the mix of calls is not that of the screen. Calls come from the whole dose curve; as a rule, active = well fitted inhibition curve with a large enough effect; inconclusive = small, poorly fitted or top-dose-only effect; inactive = no such curve, though single readings can be large or run the other way. Potencies beside an inconclusive call are fits to weak or partial responses and may not hold up.

biological target: Ferritin light chain (Equus caballus) (UniProt P02791); experiment: qHTS Assay for Identification of Novel General Anesthetics; settings: apoferritin/1-aminoanthracene competitive binding, fluorescence; activity change, negative = displacement: at 77.5 µM (top of the series); note: nearly all actives have a fitted effect of over 20% in size
Sequence of UniProt P02791 (P02791 whole entry, looked up): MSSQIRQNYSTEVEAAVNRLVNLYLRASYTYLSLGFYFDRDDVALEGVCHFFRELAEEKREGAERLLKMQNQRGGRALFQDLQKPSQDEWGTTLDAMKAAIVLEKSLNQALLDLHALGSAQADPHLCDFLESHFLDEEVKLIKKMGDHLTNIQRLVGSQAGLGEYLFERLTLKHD
How it was run: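 Horse-spleen apoferritin (10 uM) in 50% saturated 1-aminoanthracene in PBS was incubated 10 min at room temperature with compound. Fluorescence (ex 380, em 535 nm) was normalized to free and bound 1-AMA, with concentration-response fitted by a four-parameter Hill equation.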
% is set by controls: 0 for no effect and ±100 for the full control effect; potency is the fitted concentration of half-maximal effect; tags give direction and shape of the fitted curve.

SMILES | activity change, negative = displacement | Potency
O=C(CCCN1C(=O)/C(=C/c2cccc(Br)c2)SC1=S)Nc1ccccn1 | inactive: -2.64% | –
O=C(NCc1ccc(Cl)cc1Cl)C(=O)N1CCCCC1 | – | inconclusive: 31.6 µM [inhibitor, partial curve]
Cc1cccc(N(CC(=O)NC2CCCC2)C(=O)c2nsc(Cl)c2Cl)c1C | – | inconclusive: 15.8 µM [inhibitor, partial curve]
Nc1ccc2nc(-c3cccc(-c4nc5ccc(N)cc5[nH]4)c3)[nH]c2c1 | inactive: 0.469% | –
O=[N+]([O-])C(/C=C(\Cl)[N+](=O)[O-])=C1N(Cc2ccc(Cl)nc2)CCN1Cc1ccc(Cl)nc1 | inactive: -16.4% | –
Cc1ccc(C2=NN(C(=O)CSc3nc4ncc(Cl)cc4[nH]3)C(c3ccco3)C2)cc1 (stereo not drawn) | – | inconclusive: 20 µM [inhibitor, partial curve]
O=C(Nc1ccc(F)cc1F)NC1CCCCCCC1 | – | inconclusive: 15.8 µM [inhibitor, partial curve]
COc1cccc(-c2nnc(SCC(=O)N(C)C3CCCCC3)o2)c1 | – | inconclusive: 28.2 µM [inhibitor, partial curve]
COc1cc(OC)cc(-c2nnc(Nc3nc4c(F)cccc4s3)o2)c1 | inactive: 1.13% | –
CCC(C)S(=O)(=O)c1oc(-c2cccs2)nc1S(=O)(=O)c1ccccc1 (stereo not drawn) | inactive: -20.7% | –
COc1ccc(C=NCC2OCCc3ccccc32)cc1OC (stereo not drawn) | inactive: -11.4% | –
Cc1cc(C(=O)N/N=C/c2ccc3c(c2)OCO3)c(C)o1 | inactive: -8.6% | –
CC[n+]1c(/C=C/N(C)c2ccccc2)n(-c2ccccc2)c2ccc(-c3nc4ccccc4s3)cc21 | – | inconclusive: 7.08 µM [inhibitor, full curve]
O=C(N/N=C/c1ccc2c(c1)OCO2)c1ccc2ccccc2n1 | – | inconclusive: 22.4 µM [inhibitor, partial curve]
CC1=C(C(=O)OC2CCCC2)C(c2c(F)cccc2Cl)CC(=O)N1 (stereo not drawn) | – | inconclusive: 28.2 µM [inhibitor, partial curve]
COc1ccc(C(=O)c2ccccc2Cl)cc1 | – | inconclusive: 39.8 µM [inhibitor, partial curve]
COc1ccccc1CN(C)C(=O)c1ccc(COc2ccccc2)cc1 | – | inconclusive: 22.4 µM [inhibitor, single point]
COC(=O)c1cccc2c1-c1ccccc1/C2=N/O | inactive: -19.2% | –
COc1ccc(-c2nc3ccccc3o2)cc1NC(=O)Cc1ccc(Cl)cc1 | inactive: -6.11% | –
CC(C)CC(C(=O)OCC(=O)Nc1ncc(Cl)cc1Cl)N1C(=O)c2ccccc2C1=O (stereo not drawn) | – | inconclusive: 14.1 µM [inhibitor, partial curve]
CCCCn1c(C)cc2c(c1=O)[C@H]1O[C@](CCCC)(Cc3c1ccc1ccccc31)O2 | inactive: -5.37% [at 15.3 µM] | –
O=c1cc(CN2CCCc3ccccc32)nc2sccn12 | inactive: -1.02% | –
CC(C)(C)c1ccc(COn2ccnc2)cc1 | – | inconclusive: 31.6 µM [inhibitor, partial curve]
CC(C)(C)c1ccc(CN2N=Nc3ccccc3S2(=O)=O)cc1 | – | inconclusive: 39.8 µM [inhibitor, partial curve]

SMILES | activity change, negative = displacement | Potency
O=S1(=O)c2ccccc2N(Cc2ccccc2F)c2ccccc21 | inactive: 42.1% | –
CC(C)CSc1n[nH]c(=S)s1 | – | inconclusive: 31.6 µM [inhibitor, single point]
O=C(NCc1ccc2c(c1)OCO2)c1ccc2c(c1)N(Cc1c(F)cccc1Cl)C(=O)c1ccccc1S2 | inactive: -11.1% | –
C=CCS(=O)(=O)c1nc2ccccc2s1 | inactive: -22.7% | –
COc1ccc(NC(=O)C2C3C=CC(C3)C2C(=O)NCc2ccco2)c(OC)c1 (stereo not drawn) | inactive: 1.76% | –
CCOC(=O)c1c(-c2ccc(OC)cc2)csc1/N=C/C1=C(O)CCCC1=O | – | inconclusive: 50.1 µM [inhibitor, single point]
Cc1oc(-c2ccc(Cl)cc2)nc1CS(=O)CC(=O)NC1CCCCCC1 (stereo not drawn) | – | inconclusive: 7.08 µM [inhibitor, full curve, poor fit]
COc1ccc(C2=NC(c3ccccc3)=Nc3ccc(C)cc3N2)cc1 | inactive: -5.21% | –
Cc1ccc(-n2c(C)cc(C(=O)CSc3nnnn3C)c2C)cc1 | inactive: -13% | –
Cc1c(CCOC(=O)CC23CC4CC(CC(C4)C2)C3)sc[n+]1Cc1ccccc1 | – | inconclusive: 25.1 µM [inhibitor, partial curve]
COCCCNC(=O)c1cc(=O)n(Cc2ccc(Cl)cc2)c2ccccc12 | – | inconclusive: 20 µM [inhibitor, partial curve]
CC(=O)C1=C(C)NC(SCc2cccc([N+](=O)[O-])c2)=C(C#N)C1c1ccco1 (stereo not drawn) | – | inconclusive: 50.1 µM [inhibitor, partial curve]
CCCCNc1ccccc1C(=O)OCC(=O)Nc1ccc(S(N)(=O)=O)cc1 | inactive: 445% | –
S=c1nc(-c2csc3c2CCCC3)[nH][nH]1 | – | inconclusive: 25.1 µM [inhibitor, partial curve]
Cc1nc2ccn(Cc3ccco3)c(=O)c2cc1C(=O)NCc1ccc(Cl)cc1 | inactive: -16.4% | –
Oc1ccc(Cl)cc1-c1cc(-c2cccc(Br)c2)n[nH]1 | – | inconclusive: 39.8 µM [inhibitor, partial curve]
Cc1ccc2nsnc2c1NC(=O)c1ccc2c(c1)OCCO2 | – | inconclusive: 50.1 µM [inhibitor, single point]
CCn1c(SCC(=O)Nc2cc(C)ccc2F)nnc1-c1ccccc1O | inactive: -5.39% | –
O=S(=O)(Nc1ccc2ccccc2n1)c1ccc2c(c1)CCO2 | inactive: -6.24% | –
N#Cc1c(SCC(=O)Nc2nccs2)sc2c(O)cc(=O)[nH]c12 | inactive: -6.89% | –
CCCCn1c(SCC(=O)N2CCC(C)CC2)nc2cc(S(N)(=O)=O)ccc21 | – | inconclusive: 50.1 µM [inhibitor, single point]
CN(c1ccc(OCC(=O)OCC(=O)Nc2ccc(Br)cc2)cc1)S(=O)(=O)c1cccs1 | inactive: 7.89% | –
COc1cc(CNCc2ccccn2)ccc1OCc1ccc(Cl)cc1 | – | inconclusive: 31.6 µM [inhibitor, partial curve]
O=[N+]([O-])c1ccc(N2CCCCCC2)c([N+](=O)[O-])c1 | – | inconclusive: 28.2 µM [inhibitor, single point]
